Here are results for 55 compounds from PMC4336329 (PLoS ONE, 2015).

Out of some 310,000 compounds screened, about 2,200 (0.71%) showed an effect of 50% or more. The effect is printed as a negative number. This is one part of the list.

In the assay the target is human ether-à-go-go-related gene (hERG) potassium channel (human, UniProt Q12809). The assay can be described thus: primary screen, population patch clamp on CHO cells stably expressing hERG.
Sequence of human ether-à-go-go-related gene (hERG) potassium channel (Q12809 whole entry, looked up): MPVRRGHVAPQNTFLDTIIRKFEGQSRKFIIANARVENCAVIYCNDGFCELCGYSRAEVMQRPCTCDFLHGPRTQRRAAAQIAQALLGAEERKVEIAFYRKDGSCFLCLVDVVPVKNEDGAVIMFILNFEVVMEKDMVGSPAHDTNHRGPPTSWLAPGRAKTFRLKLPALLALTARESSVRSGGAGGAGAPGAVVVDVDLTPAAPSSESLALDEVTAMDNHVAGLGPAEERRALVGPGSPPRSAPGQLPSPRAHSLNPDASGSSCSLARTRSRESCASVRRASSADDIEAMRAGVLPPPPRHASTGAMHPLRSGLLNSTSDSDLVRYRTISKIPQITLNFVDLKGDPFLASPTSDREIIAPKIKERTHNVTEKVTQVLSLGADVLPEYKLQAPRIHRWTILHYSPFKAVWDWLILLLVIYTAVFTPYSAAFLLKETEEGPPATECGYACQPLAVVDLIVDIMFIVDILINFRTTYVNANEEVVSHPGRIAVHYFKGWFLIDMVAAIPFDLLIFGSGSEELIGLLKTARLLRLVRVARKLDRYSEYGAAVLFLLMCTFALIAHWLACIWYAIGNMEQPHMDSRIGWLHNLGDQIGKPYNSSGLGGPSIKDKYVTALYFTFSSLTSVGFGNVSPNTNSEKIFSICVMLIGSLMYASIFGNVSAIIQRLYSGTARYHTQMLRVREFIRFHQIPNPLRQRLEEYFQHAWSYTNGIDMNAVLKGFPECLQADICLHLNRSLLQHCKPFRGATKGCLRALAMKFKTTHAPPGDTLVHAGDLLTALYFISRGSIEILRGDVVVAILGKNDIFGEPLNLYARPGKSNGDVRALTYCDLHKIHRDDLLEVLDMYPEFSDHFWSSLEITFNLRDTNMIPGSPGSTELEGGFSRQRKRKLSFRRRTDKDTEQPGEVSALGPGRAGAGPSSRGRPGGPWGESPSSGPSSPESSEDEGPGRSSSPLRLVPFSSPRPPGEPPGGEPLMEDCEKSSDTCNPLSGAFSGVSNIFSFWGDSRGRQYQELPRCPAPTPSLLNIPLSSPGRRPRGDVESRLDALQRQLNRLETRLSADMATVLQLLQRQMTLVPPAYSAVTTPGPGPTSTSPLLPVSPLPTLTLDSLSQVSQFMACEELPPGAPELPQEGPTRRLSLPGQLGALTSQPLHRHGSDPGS
For `Cc1nn(-c2ccccc2)c(Cl)c1/C=N/NC(=O)c1ccco1`, the “hERG current change (%, negative = inhibition) at 1uM” value is given as -9.19%.

With `O=C(OC1Cn2c(=O)ccc(=O)n2C1)c1ccc([N+](=O)[O-])cc1`, the “hERG current change (%, negative = inhibition) at 1uM” value worked out at 5.05%.

As to `COc1ccc(C(=O)c2oc3nc(C)cc(C)c3c2N)cc1`, the “hERG current change (%, negative = inhibition) at 1uM” value was found to be 3.85%.

Turning to `CCOC(=O)C1CCN(S(=O)(=O)c2cnc[nH]2)CC1`, the “hERG current change (%, negative = inhibition) at 1uM” value is on record as 12.8%.

Consider `COc1cccc(NC(=O)CNS(=O)(=O)c2ccc3nc(C)sc3c2)c1`, for which the “hERG current change (%, negative = inhibition) at 1uM” value worked out at 14.5%.

As for `Cc1ccc(OCCN(C)C)c([N+](=O)[O-])c1.O=C(O)C(=O)O`, the “hERG current change (%, negative = inhibition) at 1uM” value came out at 8.54%.

For the compound `C[C@@H](C(=O)N1CCN(C(=O)OC(C)(C)C)CC1)n1cc(CCCN=C(NC(=O)OC(C)(C)C)NC(=O)OC(C)(C)C)nn1`, the “hERG current change (%, negative = inhibition) at 1uM” value amounted to 7.38%.

As for `COc1ccc(NC(=O)c2cc(C)no2)cc1Cl`, the “hERG current change (%, negative = inhibition) at 1uM” value stood at 13.9%.

On to `COc1cc(Cn2ccnc2)c(OC)cc1Cn1ccnc1`, for which the “hERG current change (%, negative = inhibition) at 1uM” value is given as -5.01%.

On to `COc1cc(OC)cc(-c2nnc(NC(=O)CCS(=O)(=O)c3ccc(C)cc3)o2)c1`, for which the “hERG current change (%, negative = inhibition) at 1uM” value is reported as 11.6%.

On to `CCC(CC)C(=O)NCc1ccccc1Cl`, for which the “hERG current change (%, negative = inhibition) at 1uM” value was 15.2%.

In the case of `CC1Sc2ccc(S(=O)(=O)CCC(=O)Nc3ccccc3Cl)cc2NC1=O` (stereo not shown), the “hERG current change (%, negative = inhibition) at 1uM” value worked out at 8.3%.

For `Cc1ccc(-n2c(O)c(/C=C/C=Nc3ccccc3)c(=O)[nH]c2=O)cc1`, the “hERG current change (%, negative = inhibition) at 1uM” value turned out to be 10.2%.

With `CCc1ccccc1N1CSC2=C(C#N)C(c3ccccc3F)CC(=O)N2C1` (stereo not shown), the “hERG current change (%, negative = inhibition) at 1uM” value was 3.31%.

Turning to `COc1ccc(N2CCN(CC(=O)Nc3nc(C)cs3)CC2)cc1`, the “hERG current change (%, negative = inhibition) at 1uM” value is 15.2%.

Take `COCC(C)n1c(C)cc(C(=O)CSc2nc3ccccc3c(=O)[nH]2)c1C` (stereo not shown): the “hERG current change (%, negative = inhibition) at 1uM” value is given as 23%.

With `CC1(C)CC(=O)C/C(=N/NC(=O)COc2ccc(Cl)cc2Cl)C1`, the “hERG current change (%, negative = inhibition) at 1uM” value is on record as 6.6%.

For the compound `Cc1ccc(/C=N/NC(=O)c2nnn(-c3nonc3N)c2CSc2ccccc2)o1`, the “hERG current change (%, negative = inhibition) at 1uM” value came to 13.9%.

As to `CCC(C)(C)C1CCc2[nH]nc(C(=O)NN)c2C1` (stereo not shown), the “hERG current change (%, negative = inhibition) at 1uM” value is 12.7%.

With `Cc1cc(C(=O)OCC(=O)Nc2cccc(S(=O)(=O)N3CCOCC3)c2)c(C)o1`, the “hERG current change (%, negative = inhibition) at 1uM” value is given as -2.17%.

Turning to `CCN(CC)C(=O)C1CCN(S(=O)(=O)c2ccc3c(c2)CCCN3C(=O)C2CCC2)CC1`, the “hERG current change (%, negative = inhibition) at 1uM” value is listed as 12%.

Consider `CCCN1C(=O)c2ccccc2NC1c1ccc(OC)cc1O` (stereo not shown), for which the “hERG current change (%, negative = inhibition) at 1uM” value was -12.3%.

As to `Cc1cc(NC(=O)CCCC(=O)OCC(F)(F)C(F)F)cc(C)c1C(=O)O`, the “hERG current change (%, negative = inhibition) at 1uM” value is 14.7%.

`CC(=O)c1c(-c2ccccc2)c2cc(Cl)ccc2n(C)c1=O`: the “hERG current change (%, negative = inhibition) at 1uM” value worked out at 9.98%.

`Cc1noc(/C=C/c2cccnc2)c1[N+](=O)[O-]`: the “hERG current change (%, negative = inhibition) at 1uM” value is on record as 8.58%.

As for `CC(C)c1cc(C(=O)Nc2sc3c(c2C#N)CCC3)no1`, the “hERG current change (%, negative = inhibition) at 1uM” value came to 7.25%.

As for `O=C(Nc1ccc(S(=O)(=O)N2CCOCC2)cc1)c1cc(S(=O)(=O)N2CCOCC2)ccc1Cl`, the “hERG current change (%, negative = inhibition) at 1uM” value came to 16.4%.

On to `Cc1ccc(C(C(=O)Nc2ccc(C(C)C)cc2)N(C)C(=O)c2ccc(=O)[nH]c2)cc1` (stereo not shown), for which the “hERG current change (%, negative = inhibition) at 1uM” value worked out at 14.8%.

On to `O=C(Nc1ccc(S(=O)(=O)N2CCOCC2)cc1)c1ccc(CN2CCc3ccccc3C2)cc1`, for which the “hERG current change (%, negative = inhibition) at 1uM” value came to 7.63%.

With `COc1cccc(-c2nn(-c3ccccc3)cc2/C=C(/NC(=O)c2ccccc2)C(=O)O)c1`, the “hERG current change (%, negative = inhibition) at 1uM” value came to 6.01%.

Take `Cc1cccc2nc(COc3ccc(Cl)c4cccnc34)cn12`: the “hERG current change (%, negative = inhibition) at 1uM” value was determined as 8.23%.

Regarding `CCCCNC(=O)Oc1ccc(C(=O)N2c3ccccc3NC(=O)C2C)cc1` (stereo not shown), the “hERG current change (%, negative = inhibition) at 1uM” value came to 11.4%.

With `c1ccc(CN2CCC(Nc3nc(-c4cccnc4)nc4ccccc34)CC2)cc1`, the “hERG current change (%, negative = inhibition) at 1uM” value was -74.6%.

Take `Cc1cccn2c(=O)c3cc(C(N)=S)c(=N)n(CCCN4CCOCC4)c3nc12`: the “hERG current change (%, negative = inhibition) at 1uM” value was -90.5%.

Regarding `COc1cc(C2C(S(=O)(=O)c3ccccc3)CON2C)ccc1OCc1ccc(F)cc1` (stereo not shown), the “hERG current change (%, negative = inhibition) at 1uM” value is listed as 1.02%.

For `C/C(=N\NC(=O)c1c(C)nc2ccccn12)c1ccc(O)cc1O`, the “hERG current change (%, negative = inhibition) at 1uM” value was found to be 16.3%.

As for `NC1=C([N+](=O)[O-])C(c2ccc(F)cc2)C2=C(CCCC2=O)O1` (stereo not shown), the “hERG current change (%, negative = inhibition) at 1uM” value came out at 10.2%.

For `CC(=O)Nc1cccc2c1Cc1ccccc1-2`, the “hERG current change (%, negative = inhibition) at 1uM” value was determined as 14.4%.

`Cc1ccccc1NC(=O)c1c([N+](=O)[O-])c(C(C)(C)C)nn1C`: the “hERG current change (%, negative = inhibition) at 1uM” value was found to be 7.26%.

As for `CC1=C(C(=O)OCC2CCCCC2)C(c2cccc(O)c2)NC(=O)N1` (stereo not shown), the “hERG current change (%, negative = inhibition) at 1uM” value amounted to 5.44%.

On to `Oc1ccccc1-n1c(-c2ccccc2)ccc1-c1ccccc1`, for which the “hERG current change (%, negative = inhibition) at 1uM” value turned out to be 13%.

Regarding `O=C(Nc1cccc2c1C(=O)NC2=O)c1ccc(N2C(=O)CCC2=O)cc1`, the “hERG current change (%, negative = inhibition) at 1uM” value is given as 10.6%.

Consider `Cc1cc(C)cc(NC(=O)CN2CCN(c3ccccn3)CC2)c1`, for which the “hERG current change (%, negative = inhibition) at 1uM” value stood at 1.92%.

On to `CN(C)S(=O)(=O)c1cccc(C(=O)OCC(=O)N2CCCC2=O)c1`, for which the “hERG current change (%, negative = inhibition) at 1uM” value turned out to be 12.1%.

`CC1CCCN(Cc2nc3c(c(=O)n(C)c(=O)n3C)n2CC(N)=O)C1` (stereo not shown): the “hERG current change (%, negative = inhibition) at 1uM” value came out at 8.42%.

Regarding `CS(=O)(=O)N1CCN(C(=O)CSc2ccccc2)CC1`, the “hERG current change (%, negative = inhibition) at 1uM” value turned out to be 17.3%.

As for `Cc1ccc(N2C(=O)N(CC(=O)NCc3ccc(Cl)cc3)C(=O)C2C)cc1` (stereo not shown), the “hERG current change (%, negative = inhibition) at 1uM” value is on record as 4.65%.

Regarding `O=C(Nc1cccc2ncccc12)c1ccccc1Cl`, the “hERG current change (%, negative = inhibition) at 1uM” value is given as 17.1%.

On to `COCCn1c(N)c(N(Cc2ccccc2)C(=O)COc2ccc(F)cc2Cl)c(=O)[nH]c1=O`, for which the “hERG current change (%, negative = inhibition) at 1uM” value was found to be 14.5%.

As to `O=C(CCCc1ccccc1)Nc1cccnc1Cl`, the “hERG current change (%, negative = inhibition) at 1uM” value amounted to 8.5%.

Regarding `CCOC(=O)N1CCC(NC(=O)c2cn(-c3ccc(OC)cc3)c(=O)c3ccccc23)CC1`, the “hERG current change (%, negative = inhibition) at 1uM” value was 9.14%.

On to `CC(=O)NS(=O)(=O)c1ccc(NC(=O)c2cccc(S(=O)(=O)N3CCc4ccccc43)c2)cc1`, for which the “hERG current change (%, negative = inhibition) at 1uM” value is recorded as 11.2%.

Consider `Cc1ccccc1NS(=O)(=O)c1ccc(C(=O)NCC(c2ccccc2)N(C)C)cc1` (stereo not shown), for which the “hERG current change (%, negative = inhibition) at 1uM” value is recorded as 13.3%.

As to `COc1ccc2nc(CNC(=O)C3CCC(=O)N(CCc4ccccc4)C3)[nH]c2c1` (stereo not shown), the “hERG current change (%, negative = inhibition) at 1uM” value is recorded as 12.7%.

On to `O=c1c2ccccc2[nH]c(=S)n1CCCN1CCC(Cc2ccccc2)CC1`, for which the “hERG current change (%, negative = inhibition) at 1uM” value was -52%.
